Source: patent EP4806900A2, “RAS INHIBITORS” (Revolution Medicines, Inc., priority 2019, dated 2021)
Some of these results come from one statement about several compounds together.

What was measured:
Format in all cases: biochemical
KRAS G12S = KRAS G12S (Homo sapiens, UniProt P01116+P62937, G12S); assay: Ras-RAF disruption TR-FRET/MOA assay, KRAS G12S; settings: Table 6
KRAS G12V = KRAS G12V (Homo sapiens, UniProt P01116+P62937, G12V); assay: Ras-RAF disruption TR-FRET/MOA assay, KRAS G12V; settings: Table 9
K-Ras G12C = K-Ras G12C (Homo sapiens, UniProt P01116+P62937, G12C); settings: Table 11; read-out: KRAS G12C FRET data, IC50
K-Ras G13C = K-Ras G13C (Homo sapiens, UniProt P01116+P62937, G13C); assay: Ras-RAF disruption TR-FRET/MOA assay, K-Ras G13C; settings: Table 8; read-out: KRAS G13C FRET data, IC50
NRAS G12C = NRAS G12C (Homo sapiens, UniProt P01111+P62937, G12C); assay: Ras-RAF disruption TR-FRET/MOA assay, NRAS G12C; settings: Table 14. NRAS G12C FRET data
Sequence of NRAS G12C (P01111 whole entry G12C): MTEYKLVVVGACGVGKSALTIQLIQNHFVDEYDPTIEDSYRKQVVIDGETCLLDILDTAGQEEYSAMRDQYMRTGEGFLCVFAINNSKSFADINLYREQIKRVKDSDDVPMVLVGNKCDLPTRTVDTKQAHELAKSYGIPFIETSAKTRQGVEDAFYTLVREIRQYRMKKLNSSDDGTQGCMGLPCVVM
Sequence of NRAS G12C (P62937 whole entry): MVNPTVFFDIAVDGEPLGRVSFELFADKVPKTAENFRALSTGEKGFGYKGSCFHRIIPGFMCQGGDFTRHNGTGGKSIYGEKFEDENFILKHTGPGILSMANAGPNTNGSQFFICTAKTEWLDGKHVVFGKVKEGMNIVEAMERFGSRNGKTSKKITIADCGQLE

Q: “(2S)-N-[(7S,13S)-21-ethyl-20-[2-(methoxymethyl)pyridin-3-yl]-17,17-dimethyl-8,14-dioxo-15-oxa-4-thia-9,21,27,28-tetraazapentacyclo[17.5.2.1^2,^5.1^9,^13.0^22,^26]octacosa-1(25),2,5(28),19,22(26),23-hexaen-7-yl]-3-methyl-2-{N-methyl-1-[(3S)-1-(prop-2-enoyl)pyrrolidin-3-yl]formamido}butanamide [Compound A194]” was tested. Which IC50 (KRAS G12S) did it give?
A: 10 to 100 nM

Q: And the IC50 (KRAS G12V)?
A: 10 to 100 nM

Q: For `CCn1c(-c2cccnc2[C@H](C)OC)c2c3cc(ccc31)-c1cc(O)cc(c1)C[C@H](NC(=O)[C@H](C(C)C)N(C)C(=O)c1ncc(NC(=O)/C=C/CN(C)C)n1C)C(=O)N1CCC[C@H](N1)C(=O)OCC(C)(C)C2` [Compound A529], which IC50 (K-Ras G12C) is on record?
A: < 10 nM

Q: And the IC50 (K-Ras G13C)?
A: < 10 nM

Q: What about the IC50 (NRAS G12C) of the same molecule?
A: < 10 nM

Q: For `CCn1c(-c2cccnc2[C@H](C)OC)c2c3cc(ccc31)-c1cc(O)cc(c1)C[C@H](NC(=O)[C@H](C(C)C)N(C)C(=O)[C@H]1CCN(C(=O)/C=C/CN3CCOCC3)C1)C(=O)N1CCC[C@H](N1)C(=O)OCC(C)(C)C2` (atropisomer, axis not shown) [Compound A184], which IC50 (KRAS G12V) is on record?
A: 10 to 100 nM
